According to the supplement of paper PMC4967469:
The IC50 comes from the fitted curve, where viability falls to half of the control; a fit beyond the top or the lowest dose is shown as a bound at that dose. AUC sums up the same curve from the lowest dose to the 256-fold higher top dose: 1 means no effect, lower means more sensitive. For some of these results: The top dose, if marked as inferred, comes from the curve model; the source does not state it. For some of these results: Drugs with an entry number were screened twice under separate entries, and the two screens often disagree.

Assays:
Assay in all cases: Viability of human cancer cell lines after 72 h of drug (GDSC screen)
TPCA-1 = compound: NC(=O)Nc1sc(-c2ccc(F)cc2)cc1C(N)=O [TPCA-1]; settings: top dose 20 µM
Description: (§1)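 Human cancer cell lines in 384-well plates, medium with 10% serum, drug for 72 h over a 256-fold dose range (nine 2-fold or five 4-fold steps up to the top dose). Adherent lines were fixed and stained with the nucleic acid dye Syto60, suspension lines read with resazurin; signal relative to control wells, capped at 0 and 100%. One two-parameter sigmoid per drug and line, fitted in a mixed model over all curves with the slope shared within a line.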

PLX4720 = compound: CCCS(=O)(=O)Nc1ccc(F)c(C(=O)c2c[nH]c3ncc(Cl)cc23)c1F [PLX4720]; settings: top dose 10 µM
Description: as §1

Y-39983 = compound: C[C@@H](N)c1ccc(C(=O)Nc2ccnc3[nH]ccc23)cc1 [Y-39983]; settings: top dose 20 µM; top dose inferred
Description: as §1

PHA-793887 = compound: CC(C)CC(=O)Nc1n[nH]c2c1CN(C(=O)C1CCN(C)CC1)C2(C)C [PHA-793887]; settings: top dose 10.24 µM
Description: as §1

Epothilone B = compound: C/C(=C\c1csc(C)n1)[C@@H]1C[C@@H]2O[C@]2(C)CCC[C@H](C)[C@H](O)[C@@H](C)C(=O)C(C)(C)[C@@H](O)CC(=O)O1 [Epothilone B]; settings: top dose 0.032 µM; top dose inferred
Description: as §1

[1] = screen: GDSC drug entry 1371, top dose inferred

| Cell Line | AUC (TPCA-1) | IC50 (TPCA-1) [µM] | AUC (PLX4720; screen: GDSC drug entry 1036) | IC50 (PLX4720; screen: GDSC drug entry 1036) [µM] | AUC (PLX4720; [1]) | IC50 (PLX4720; [1]) [µM] | AUC (Y-39983) | IC50 (Y-39983) [µM] | AUC (PHA-793887) | IC50 (PHA-793887) [µM] | AUC (Epothilone B) | IC50 (Epothilone B) [µM] |
| --- | --- | --- | --- | --- | --- | --- | --- | --- | --- | --- | --- | --- |
| CAL-39 (cervix, adherent) | 0.937 | > 20 | 0.986 | > 10 | 0.975 | > 10 | 0.915 | > 20 | 0.957 | > 10.2 | 0.296 | 0.000521 |
| CAL-51 (breast, adherent) | 0.991 | > 20 | 0.985 | > 10 | 0.981 | > 10 | 0.991 | > 20 | 0.971 | > 10.2 | 0.446 | 0.00145 |
| CAL-54 (kidney, adherent) | 0.687 | 4.52 | 0.941 | > 10 | 0.962 | > 10 | 0.973 | > 20 | 0.978 | > 10.2 | 0.895 | > 0.032 |
| CAL-62 (thyroid, adherent) | 0.961 | > 20 | 0.965 | > 10 | 0.972 | > 10 | 0.984 | > 20 | 0.921 | > 10.2 | 0.305 | 0.000586 |
| CAL-72 (osteosarcoma, adherent) | 0.984 | > 20 | 0.873 | > 10 | 0.971 | > 10 | 0.983 | > 20 | 0.984 | > 10.2 | 0.916 | > 0.032 |
| CAL-78 (chondrosarcoma, adherent) | 0.916 | > 20 | 0.96 | > 10 | 0.952 | > 10 | 0.887 | > 20 | 0.986 | > 10.2 | 0.848 | 0.0294 |
| CAL-85-1 (breast, adherent) | 0.753 | 8.42 | 0.962 | > 10 | 0.965 | > 10 | 0.922 | > 20 | 0.806 | 7.03 | 0.361 | 0.000739 |
| CAL-120 (breast, adherent) | 0.77 | 9.87 | 0.928 | > 10 | 0.929 | > 10 | 0.853 | > 20 | 0.95 | > 10.2 | 0.744 | 0.0125 |
| CAMA-1 (breast, adherent) | 0.968 | > 20 |  |  | 0.978 | > 10 | 0.97 | > 20 | 0.909 | > 10.2 | 0.788 | 0.0181 |
| CAPAN-1 (pancreas, adherent) | 0.903 | > 20 | 0.987 | > 10 | 0.985 | > 10 | 0.985 | > 20 | 0.752 | 3.74 | 0.619 | 0.00443 |
| CCF-STTG1 (glioma, adherent) | 0.886 | > 20 | 0.988 | > 10 | 0.987 | > 10 | 0.965 | > 20 | 0.934 | > 10.2 | 0.665 | 0.00578 |
| CCK-81 (large intestine, adherent) | 0.845 | 13.2 | 0.99 | > 10 | 0.988 | > 10 | 0.943 | > 20 | 0.97 | > 10.2 | 0.528 | 0.00237 |
| CHL-1 (melanoma, adherent) | 0.483 | 1.13 | 0.843 | 6.49 | 0.959 | > 10 | 0.944 | > 20 | 0.834 | 6.14 | 0.354 | 0.000807 |
| CHP-212 (neuroblastoma, adherent) | 0.977 | > 20 | 0.988 | > 10 | 0.987 | > 10 | 0.978 | > 20 | 0.988 | > 10.2 | 0.595 | 0.00357 |
| CHSA0011 (chondrosarcoma, adherent) | 0.9 | > 20 | 0.965 | > 10 | 0.95 | > 10 | 0.975 | > 20 | 0.926 | > 10.2 | 0.978 | > 0.032 |
| CHSA0108 (chondrosarcoma, adherent) | 0.798 | 11.2 | 0.95 | > 10 | 0.959 | > 10 | 0.975 | > 20 | 0.818 | 6.96 | 0.927 | > 0.032 |
| CHSA8926 (chondrosarcoma, adherent) | 0.954 | > 20 | 0.932 | > 10 | 0.825 | 9.7 | 0.456 | 0.903 | 0.975 | > 10.2 | 0.943 | > 0.032 |
| COLO-205 (large intestine, suspension) | 0.796 | 9.22 | 0.319 | 0.197 | 0.771 | 3.79 | 0.935 | > 20 | 0.723 | 2.71 | 0.344 | 0.000745 |
| COLO-678 (large intestine, semi-adherent) | 0.975 | > 20 | 0.985 | > 10 | 0.983 | > 10 | 0.979 | > 20 | 0.945 | > 10.2 | 0.977 | > 0.032 |
| COLO-679 (melanoma, adherent) | 0.933 | > 20 | 0.589 | 1.13 | 0.543 | 0.832 | 0.969 | > 20 | 0.759 | 3.97 | 0.309 | 0.000543 |
| COLO-680N (oesophagus, adherent) | 0.981 | > 20 | 0.986 | > 10 | 0.985 | > 10 | 0.981 | > 20 | 0.906 | > 10.2 | 0.688 | 0.00748 |
| COLO-783 (melanoma, adherent) | 0.968 | > 20 | 0.838 | 6.4 | 0.78 | 3.95 | 0.99 | > 20 | 0.987 | > 10.2 | 0.99 | > 0.032 |
